The data set deals with the molecule itself. As to the kind of experiment: cryo-EM structure.

These results are taken from paper PMC8313811 (Current Research in Structural Biology, 2021).

“And” between values parts separate entries of the source, which are not always exact repeats. Equal entries are not always repeated.

B1: M. tuberculosis full-length EspB2-460 (natural protein)
chain: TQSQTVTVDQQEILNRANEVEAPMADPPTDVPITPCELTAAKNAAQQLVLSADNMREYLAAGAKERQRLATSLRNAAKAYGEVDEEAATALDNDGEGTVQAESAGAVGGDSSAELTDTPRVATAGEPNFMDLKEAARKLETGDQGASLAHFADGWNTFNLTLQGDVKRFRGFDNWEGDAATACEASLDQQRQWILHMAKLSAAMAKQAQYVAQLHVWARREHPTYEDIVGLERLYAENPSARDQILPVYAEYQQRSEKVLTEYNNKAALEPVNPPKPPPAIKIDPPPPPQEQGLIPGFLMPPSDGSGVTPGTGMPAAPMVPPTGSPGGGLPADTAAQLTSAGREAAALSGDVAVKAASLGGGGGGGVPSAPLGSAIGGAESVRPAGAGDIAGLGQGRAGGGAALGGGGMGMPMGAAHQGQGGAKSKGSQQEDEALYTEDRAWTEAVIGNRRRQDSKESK
As usually defined, the stoichiometry N is the number of molecules, sites or subunits per partner or assembly. As for B1, the “stoichiometry N” value is 6 and 7 and 8.
